Data reported in PubChem BioAssay AID488969 (Vanderbilt High Throughput Screening Facility, 2010).
The full ranking holds about 110,000 compounds; the median of “z-score” is about -0.1, and the highest 2% start at about 2. The list shows a part of the results. Active and inactive are the calls of the source.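 Rule for the calls: active = z-score in the third read window above 3 or below -3; inactive = the rest.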

target: Metabotropic glutamate receptor 8 (Rattus norvegicus) (UniProt P70579); assay: mGluR8 Gi/Go-coupled signaling modulation – cell-based, rat, thallium flux, HTS, primary screen (AID 488969); conditions: HEK293 rat mGluR8, GIRK (G protein-gated inwardly rectifying potassium channel) thallium flux, FluoZin2; at 10 µM; stronger effect = higher value; submaximal glutamate (EC20) added with thallium
Chain of UniProt P70579 (P70579 whole entry, looked up): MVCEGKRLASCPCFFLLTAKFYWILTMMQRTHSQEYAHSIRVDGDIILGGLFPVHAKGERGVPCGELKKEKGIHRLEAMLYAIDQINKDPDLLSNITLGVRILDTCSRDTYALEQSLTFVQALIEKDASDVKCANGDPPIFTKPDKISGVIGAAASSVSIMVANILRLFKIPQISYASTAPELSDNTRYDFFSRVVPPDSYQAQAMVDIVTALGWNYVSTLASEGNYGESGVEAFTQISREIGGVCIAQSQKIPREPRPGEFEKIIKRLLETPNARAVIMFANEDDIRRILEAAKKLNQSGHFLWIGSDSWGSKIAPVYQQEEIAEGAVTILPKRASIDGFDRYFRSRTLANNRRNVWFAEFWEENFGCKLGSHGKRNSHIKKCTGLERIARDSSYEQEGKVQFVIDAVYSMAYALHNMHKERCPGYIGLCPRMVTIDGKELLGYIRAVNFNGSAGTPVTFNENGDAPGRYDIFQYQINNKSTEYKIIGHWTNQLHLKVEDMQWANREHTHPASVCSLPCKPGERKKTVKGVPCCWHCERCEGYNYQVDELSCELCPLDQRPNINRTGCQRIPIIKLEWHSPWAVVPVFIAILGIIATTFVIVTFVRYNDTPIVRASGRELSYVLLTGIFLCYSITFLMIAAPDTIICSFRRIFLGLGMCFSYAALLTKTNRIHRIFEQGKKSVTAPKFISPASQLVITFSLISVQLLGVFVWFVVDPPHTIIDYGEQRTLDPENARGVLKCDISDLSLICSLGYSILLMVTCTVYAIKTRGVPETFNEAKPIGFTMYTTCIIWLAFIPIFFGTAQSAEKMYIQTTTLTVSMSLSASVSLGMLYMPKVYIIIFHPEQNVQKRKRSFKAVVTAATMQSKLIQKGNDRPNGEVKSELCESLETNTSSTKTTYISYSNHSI

| Compound | z-score |
| --- | --- |
| CCOc1ccc(NC(=O)c2cc3n(n2)C(C(F)(F)F)CC(c2ccco2)N3)cc1 (stereo unspecified) | 0.00129 |
| COc1ccc(CCN=C(N)NS(=O)(=O)c2ccc3ccccc3c2)cc1 | -0.0515 |
| COc1ccccc1N1CCN(C(=O)c2oc3cc(C)c(C)cc3c2C)CC1 | 0.102 |
| COCCN(C(=O)Nc1ccccc1)c1ccccc1C | -0.0144 |
| Cc1ccc(-c2nc(N3CCOCC3)sc2C(=O)N2CCCCC2)cc1 | -0.188 |
| COc1ccc(/C=C(/C#N)S(=O)(=O)c2ccc(C)cc2)cc1 | -0.481 |
| Cc1nnc(N2CCOCC2)c2ccccc12 | 0.279 |
| COn1c(=O)c(-c2cccs2)[n+]([O-])c2ccccc21 | 1.16 |
| COc1ccc(N(CC(=O)NC2CCCC2)C(=O)Cn2nnc(-c3ccc(F)cc3)n2)cc1OC | 0.0387 |
| CCN1CCN(CC2CC3C=CC2C3)CC1 (stereo unspecified) | -0.713 |
| O=C(c1ccc(Cl)cc1)c1cnc2ccccn12 | -0.0464 |
| Cc1ncc(N=Nc2ccccc2)c(-c2ccccc2)n1 | -0.305 |
| O=C(Nc1ccccc1N1CCCC1)c1cc2ccccc2o1 | -0.49 |
| CCN(c1cccc(C)c1)S(=O)(=O)c1ccc2c3c(cccc13)C(=O)N2 | 0.342 |
| O=C(NCCCN1CCOCC1)C(=O)NCC1CCCO1 (stereo unspecified) | -0.101 |
| COCCn1nnnc1C(C(C)C)N(Cc1cccnc1)Cc1ccccc1Cl (stereo unspecified) | 0.0403 |
| COc1ccc(NC(=O)CSc2nc3c(c(=O)n2-c2ccccc2OC)SCC3)cc1 | -0.282 |
| CC(C)C(NC(=O)C1CCCCC1)C(=O)Nc1ccc2c(c1)OCCO2 (stereo unspecified) | 0.226 |
| N#Cc1nc(-c2ccc(OCc3ccc(Cl)cc3)cc2)oc1N1CCOCC1 | 0.132 |
| C=CCN1C(=NC(=O)CCC(=O)O)SC2CS(=O)(=O)CC21 (stereo unspecified) | 0.00517 |
| Cn1c(=O)c(NCCO)c2c3c(cccc31)C(=O)c1ccccc1-2 | -2.23 |
| CCCCn1c(SCn2nnc3ccccc3c2=O)nc2cc(S(N)(=O)=O)ccc21 | -0.835 |
| O=C(COC(=O)Cc1ccc(Br)cc1)NC12CC3CC(CC(C3)C1)C2 | -0.0384 |

| Compound | z-score |
| --- | --- |
| CCN(CC)C(=O)CSc1nnc(-c2ccc(F)cc2)n1N | 0.0557 |
| CC(=O)NCCC(=O)Nc1nc(C)c(Cc2ccc3c(c2)OCO3)s1 | -0.403 |
| Cc1ccc(N=Cc2c(O)n(-c3ccc4c(c3)OCO4)c(=O)c3ccccc23)cc1 | -0.43 |
| O=S(=O)(NCCOc1ccccc1)c1ccc2ccccc2c1 | 0.0704 |
| CCOc1cccc(N2C(=O)CC(N3CCN(c4nc5ccccc5s4)CC3)C2=O)c1 (stereo unspecified) | 0.0776 |
| Clc1ccc(-c2csc(N3CCSCC3)n2)cc1 | -0.0793 |
| CC1CCN(C(c2cccs2)c2nnnn2Cc2ccccc2)CC1 (stereo unspecified) | 0.141 |
| CCCC(C)C(=O)Nc1ccncc1 (stereo unspecified) | 0.0464 |
| CS(=O)(=O)N(CC(=O)Nc1cc(Cl)ccc1Cl)c1ccccc1 | -0.399 |
| COc1cccc(/C=C(/CC(=O)Nc2ccc(N3CCOCC3)cc2)c2nc3ccccc3s2)c1 | 0.107 |
| CCCOC(=O)c1ccc(Nc2cc(C)nc3ncnn23)cc1 | -0.0505 |
| CCCCCCCOc1ccc(-c2ccc(C#N)cn2)cc1 | -0.0858 |
| COc1ccccc1CN(C)C(=O)C1(c2ccc(Cl)cc2)CC1 | -1.32 |
| Cc1ccc(S(=O)(=O)N(CC(=O)NC2CCCCCC2)c2ccccc2F)cc1 | -0.0358 |
| COc1ccc2c(c1)C(=O)/C(=C/C=C/c1ccccc1)CC2 | 0.0131 |
| N#CCSc1nc2c(c(=O)n1Cc1ccco1)C1(CCCC1)Cc1ccccc1-2 | -1.12 |
| COc1cccc(-c2csc(N3CCN(C(=O)Nc4ccc(F)cc4)CC3)n2)c1 | -2.33 |
| CCC(=O)Nc1cccc(NC(=S)NC(=O)c2ccccc2Cl)c1 | -0.385 |
| Cc1nn2c(=O)cc(COC(=O)c3ccc(S(=O)(=O)N4CCCCC4)cc3)nc2s1 | -0.167 |
| CCS(=O)(=O)Nc1ccc(Cc2ccncc2)cc1 | 0.0973 |
| CC1(C)Cc2c(c(=S)nc(-c3ccccc3)n2CCO)CO1 | -0.0783 |
| COc1ccc(CCNC(=O)c2ccc(Cl)cc2Cl)cc1 | -0.0103 |
| CC(=O)C1=C(N2CCCCC2)CCC1=O | 0.0732 |

| Compound | z-score |
| --- | --- |
| CCS(=O)(=O)NCCCc1ccccc1 | -0.116 |
| O=c1c(F)cn(C2CCCO2)c(=O)n1Cc1ccccc1Cl (stereo unspecified) | 0.24 |
| CCOCCCNC(=O)C(C)NS(=O)(=O)c1ccc(C)cc1 (stereo unspecified) | -0.0235 |
| CCOc1ccc(-c2cnc3n2CCC3)cc1 | -0.153 |
| O=C(c1ccco1)N(CCC(c1ccccc1)c1ccco1)Cc1ccccc1 (stereo unspecified) | -0.0064 |
| COc1ccc(CN2CCN(C(=O)CC(C)C)CC2)cc1OC | 0.19 |
| CCOc1cccc(/C(O)=C2/C(=O)C(=O)N(CCN3CCOCC3)C2c2cccnc2)c1 (stereo unspecified) | 0.184 |
| CC(=O)c1ccc(NC(=O)C2CCC(C)NC2=O)cc1 (stereo unspecified) | -0.0742 |
| CCC(C)NC(=O)c1cc(Sc2nnc(C)s2)nc2ccccc12 (stereo unspecified) | -0.044 |
| COc1ccc(C(=O)c2ccc(N3CCN(C(=O)c4ccc(F)cc4)CC3)c(F)c2)cc1Br | 0.178 |
| COc1ccc(CCNC(=O)c2cc(-c3ccc(C)cc3O)n[nH]2)cc1OC | -0.117 |
| O=C(NN=C1CCCC1)C(=O)Nc1cccc(C(F)(F)F)c1 | 0.0618 |
| COc1ccc(/C=C2\SC(=O)N(CC(=O)NNC(=O)c3ccccc3O)C2=O)cc1 | 0.0269 |
| COc1ccc(N(CC(=O)NC2CCCCCCC2)S(=O)(=O)c2c(C)nn(C)c2C)cc1 | -0.281 |
| C/C(=N\NC(=O)CN1CCN(S(=O)(=O)c2ccc(C)cc2)CC1)c1cccnc1 | 0.65 |
| O=C(CC(C(=O)O)c1ccccc1)Nc1ccccc1 (stereo unspecified) | -0.274 |
| O=C(NCCC1=CCCCC1)c1cnccn1 | 0.163 |
| Fc1ccc2nc(Nc3nc4c(F)cccc4s3)sc2c1 | active: 4.98 |
| COc1ccc(Sc2ccc(NC(=O)c3ccccc3Cl)cc2C#N)cc1 | -0.148 |
| c1ccc(Nc2ncnc3c2oc2ccccc23)cc1 | 0.192 |
| COc1ccccc1N1CCN(C(=O)c2cc3cc(Br)ccc3oc2=O)CC1 | -0.432 |
| Cc1c(NC(=S)N/N=C/c2ccc(N(C)C)cc2)c(=O)n(-c2ccccc2)n1C | -0.203 |
| CCOC(=O)CSc1snnc1-c1ccccc1 | -1.23 |

| Compound | z-score |
| --- | --- |
| COc1ccc(Cl)cc1NC(=O)CN(C)C1CCCCC1 | 0.225 |
| COc1ccc(C)cc1NCC(=O)Nc1ccc(C(C)(C)C)cc1 | -0.443 |
| Cc1ccc(S(=O)(=O)N(Cc2ccc(F)cc2)Cc2ccco2)cc1 | 0.274 |
| N#Cc1cc2c(nc1SCc1ccncc1)CCC2 | 0.0476 |
| COc1ccc(CCNC(=S)Nc2cc(C)cc(C)c2)cc1 | 0.195 |
| CC1CC(=O)N(c2ccc(NCc3ccc(Cl)cc3)c([N+](=O)[O-])c2)C1=O (stereo unspecified) | -0.238 |
| CC1C2CC(CC1(C)C)N(C(=O)Nc1ccc3nccnc3c1)C2 (stereo unspecified) | -0.155 |
| COc1ccc([C@H]2[C@@H](C#N)[C@H](C#N)N3CCCN23)cc1 | -0.0861 |
| CCCC(=O)NC(=S)Nc1ccc(NC(=O)c2cccs2)cc1 | -0.143 |
| COC(=O)c1cccc(NC(=O)c2onc3c2CCCC3)c1 | -0.228 |
| CCCCn1nnnc1SCC(=O)c1cc(Cl)ccc1OC | -1.36 |
| CCCCNc1c(N2CCN(C(=O)OCC)CC2)c(=O)c1=O | 1.06 |
| COc1ccc(CC(=O)NC(C)c2nnc(SCC(=O)Nc3nc(C)cs3)n2C)cc1 (stereo unspecified) | 0.0325 |
| COC(=O)c1cc2c(=O)n3ccccc3nc2n(Cc2cccnc2)c1=N | 0.851 |
| CNCc1ccc(OCc2ccccc2)c(OC)c1 | 0.83 |
| Cc1nnc(SCC(=O)NNC(=O)CC#N)[nH]c1=O | 0.296 |
| CCC(C)NC(=O)C1CCC(=O)N(c2cc(OC)c(OC)c(OC)c2)C1c1ccc(OC)cc1 (stereo unspecified) | 0.24 |
| Cc1cc(Nc2nc3ccccc3nc2Cl)n(-c2ccccc2)n1 | 0.00239 |
| CCOC(=O)c1[nH]c2ccc(OC)cc2c1NC(=O)CCN1CCC(C)CC1 | -0.426 |
| CCOC(=O)N1CCC(Nc2nc3ccccc3nc2NS(=O)(=O)c2ccc(Cl)cc2)CC1 | -2.46 |
| O=C(Nc1ccccc1)c1ccc(NCCc2ccccc2)c([N+](=O)[O-])c1 | 0.249 |
| CCOC(=O)c1c(-c2ccccc2)nc2ccccn12 | -0.275 |
| COCCN1C=C(C(=O)OC)C(c2ccc3c(c2)OCO3)C(C(=O)OC)=C1 | -0.336 |

| Compound | z-score |
| --- | --- |
| COc1cc(C(=O)NCc2nnc(SCC(=O)Nc3nc4ccccc4s3)o2)cc(OC)c1OC | -0.227 |
| COc1ccc(C(=O)C2CN(c3ccccc3)CC2c2ccc(Cl)cc2)cc1 (stereo unspecified) | 0.113 |
| Cc1ccc(-n2c(Cc3cccn3C)nnc2SCC(=O)Nc2nnc(C)s2)cc1 | 0.278 |
| CSc1nnc2n(C)c3c(c(=O)n12)C1(CCCC1)Cc1ccccc1-3 | -0.325 |
| Cc1cc(C)n(CC(O)COc2ccccc2)n1 (stereo unspecified) | 0.103 |
| N#Cc1ccc(N2C(=O)[C@@H]3C(C(=O)C(c4ccccc4)c4ccccc4)=NN[C@@H]3C2=O)cc1 | -0.128 |
| COc1cc(NS(=O)(=O)c2ccc(C)c(C)c2)c(OC)cc1Cl | 0.334 |
| N#Cc1ccc(C(c2nnnn2C2CCCC2)N2CCC(Cc3ccccc3)CC2)cc1 (stereo unspecified) | -0.213 |
| CC(C)Oc1ccc(C(=O)NC2CCS(=O)(=O)C2)cc1 (stereo unspecified) | -0.104 |
| Cc1nn(-c2ccccc2)c(C)c1/C=N/NC(=O)c1cc(-c2cccc3ccccc23)n[nH]1 | -0.481 |
| CCN(CC)CCNC(=O)C(=O)NCC1OCCN1C(=O)c1ccc2c(c1)OCO2 (stereo unspecified) | -0.268 |
| O=C(C[n+]1cccc(NC(=O)c2ccccc2)c1)c1ccc(NC(=O)c2ccccc2)cc1 | -0.0503 |
| Cc1ccc(-c2nnc(N(C)C(=O)c3ccccn3)s2)cn1 | 0.498 |
| CC(C)Cc1nn2c(=O)cc(O)nc2s1 | -0.352 |
| CCOc1ccc(N=Nc2c(=O)[nH]n3c(=O)cc(C)[nH]c23)cc1 | -0.63 |
| COc1ccc(NC(=O)[C@@H](NC(=O)c2ccccc2)C(C)C)cc1S(=O)(=O)N1CCCCC1 | -0.331 |
| COc1cc(CNc2ccc(CNc3ncn[nH]3)cc2)cc(Cl)c1OCc1ccccc1 | -0.0655 |
| CCOC(=O)CC1=C(C(=O)OCC)C(c2ccncc2)C(C#N)=C(N)O1 (stereo unspecified) | -0.0524 |
| CCOC(=O)c1ccc(NS(=O)(=O)c2ccc3[nH]c(=O)[nH]c3c2)cc1 | 0.861 |
